Assay [1] concerns the target T1, Rad17 (two-hybrid fusion) (S. cerevisiae) (UniProt P48581).
T1 sequence: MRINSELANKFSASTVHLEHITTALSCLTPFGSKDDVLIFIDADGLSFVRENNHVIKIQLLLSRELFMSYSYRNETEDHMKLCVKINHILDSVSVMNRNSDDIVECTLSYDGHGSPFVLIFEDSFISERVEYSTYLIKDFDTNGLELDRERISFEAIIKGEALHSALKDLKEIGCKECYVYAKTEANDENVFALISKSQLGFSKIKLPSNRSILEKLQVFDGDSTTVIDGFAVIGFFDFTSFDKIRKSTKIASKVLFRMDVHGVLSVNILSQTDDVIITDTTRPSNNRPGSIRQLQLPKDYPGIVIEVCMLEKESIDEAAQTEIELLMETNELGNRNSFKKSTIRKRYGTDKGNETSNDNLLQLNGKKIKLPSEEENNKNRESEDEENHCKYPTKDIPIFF
The assay is described as follows: two-hybrid; Gal4 DB bait (pMB27) and Gal4 AD prey (pMB29) in diploid cdc13-1 reporter strains; growth on SC-His-Leu-Trp and SC-Ade-Leu-Trp, spotted at 23-29°C (23°C and 27°C shown); interactions of Ddc1 seem less strong at 27°C than at 23°C.

In assay [2] the target is T2, Mec3 (two-hybrid fusion) (S. cerevisiae) (UniProt Q02574).
T2 sequence: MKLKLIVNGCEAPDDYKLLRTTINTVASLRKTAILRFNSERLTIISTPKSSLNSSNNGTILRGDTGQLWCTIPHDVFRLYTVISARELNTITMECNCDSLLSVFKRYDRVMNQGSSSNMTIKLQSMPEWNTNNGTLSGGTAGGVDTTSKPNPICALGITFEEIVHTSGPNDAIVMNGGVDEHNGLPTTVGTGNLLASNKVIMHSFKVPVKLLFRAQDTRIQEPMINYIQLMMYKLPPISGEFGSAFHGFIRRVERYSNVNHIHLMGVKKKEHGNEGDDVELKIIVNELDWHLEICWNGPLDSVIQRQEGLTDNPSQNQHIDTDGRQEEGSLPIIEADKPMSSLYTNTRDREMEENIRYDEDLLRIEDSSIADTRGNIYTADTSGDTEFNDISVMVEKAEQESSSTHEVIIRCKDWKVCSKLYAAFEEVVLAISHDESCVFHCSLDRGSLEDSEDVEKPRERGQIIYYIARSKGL
The assay is described as above.

Results are given in words; binding and its absence hold for the method and conditions named. Sequences can lack the tags named with a protein.

B1: Sgs1 (two-hybrid fusion) (protein, UniProt P35187 1-1447)
chain: MVTKPSHNLRREHKWLKETATLQEDKDFVFQAIQKHIANKRPKTNSPPTTPSKDECGPGTTNFITSIPASGPTNTATKQHEVMQTLSNDTEWLSYTATSNQYADVPMVDIPASTSVVSNPRTPNGSKTHNFNTFRPHMASSLVENDSSRNLGSRNNNKSVIDNSSIGKQLENDIKLEVIRLQGSLIMALKEQSKLLLQKCSIIESTSLSEDAKRLQLSRDIRPQLSNMSIRIDSLEKEIIKAKKDGMSKDQSKGRSQVSSQDDNIISSILPSPLEYNTSSRNSNLTSTTATTVTKALAITGAKQNITNNTGKNSNNDSNNDDLIQVLDDEDDIDCDPPVILKEGAPHSPAFPHLHMTSEEQDELTRRRNMRSREPVNYRIPDRDDPFDYVMGKSLRDDYPDVEREEDELTMEAEDDAHSSYMTTRDEEKEENELLNQSDFDFVVNDDLDPTQDTDYHDNMDVSANIQESSQEGDTRSTITLSQNKNVQVILSSPTAQSVPSNGQNQIGVEHIDLLEDDLEKDAILDDSMSFSFGRQHMPMSHSDLELIDSEKENEDFEEDNNNNGIEYLSDSDLERFDEERENRTQVADIQELDNDLKIITERKLTGDNEHPPPSWSPKIKREKSSVSQKDEEDDFDDDFSLSDIVSKSNLSSKTNGPTYPWSDEVLYRLHEVFKLPGFRPNQLEAVNATLQGKDVFVLMPTGGGKSLCYQLPAVVKSGKTHGTTIVISPLISLMQDQVEHLLNKNIKASMFSSRGTAEQRRQTFNLFINGLLDLVYISPEMISASEQCKRAISRLYADGKLARIVVDEAHCVSNWGHDFRPDYKELKFFKREYPDIPMIALTATASEQVRMDIIHNLELKEPVFLKQSFNRTNLYYEVNKKTKNTIFEICDAVKSRFKNQTGIIYCHSKKSCEQTSAQMQRNGIKCAYYHAGMEPDERLSVQKAWQADEIQVICATVAFGMGIDKPDVRFVYHFTVPRTLEGYYQETGRAGRDGNYSYCITYFSFRDIRTMQTMIQKDKNLDRENKEKHLNKLQQVMAYCDNVTDCRRKLVLSYFNEDFDSKLCHKNCDNCRNSANVINEERDVTEPAKKIVKLVESIQNERVTIIYCQDVFKGSRSSKIVQANHDTLEEHGIGKSMQKSEIERIFFHLITIRVLQEYSIMNNSGFASSYVKVGPNAKKLLTGKMEIKMQFTISAPNSRPSTSSSFQANEDNIPVIAQKSTTIGGNVAANPPRFISAKEHLRSYTYGGSTMGSSHPITLKNTSDLRSTQELNNLRMTYERLRELSLNLGNRMVPPVGNFMPDSILKKMAAILPMNDSAFATLGTVEDKYRRRFKYFKATIADLSKKRSSEDHEKYDTILNDEFVNRAAASSNGIAQSTGTKSKFFGANLNEAKENEQIINQIRQSQLPKNTTSSKSGTRSISKSSKKSANGRRGFRNYRGHYRGRK
B1: the binding result in assay [1] and in assay [2] was “no binding” in each case.

B2: Exo1 (two-hybrid fusion) (protein, UniProt P39875 1-702)
chain: MGIQGLLPQLKPIQNPVSLRRYEGEVLAIDGYAWLHRAACSCAYELAMGKPTDKYLQFFIKRFSLLKTFKVEPYLVFDGDAIPVKKSTESKRRDKRKENKAIAERLWACGEKKNAMDYFQKCVDITPEMAKCIICYCKLNGIRYIVAPFEADSQMVYLEQKNIVQGIISEDSDLLVFGCRRLITKLNDYGECLEICRDNFIKLPKKFPLGSLTNEEIITMVCLSGCDYTNGIPKVGLITAMKLVRRFNTIERIILSIQREGKLMIPDTYINEYEAAVLAFQFQRVFCPIRKKIVSLNEIPLYLKDTESKRKRLYACIGFVIHRETQKKQIVHFDDDIDHHLHLKIAQGDLNPYDFHQPLANREHKLQLASKSNIEFGKTNTTNSEAKVKPIESFFQKMTKLDHNPKVANNIHSLRQAEDKLTMAIKRRKLSNANVVQETLKDTRSKFFNKPSMTVVENFKEKGDSIQDFKEDTNSQSLEEPVSESQLSTQIPSSFITTNLEDDDNLSEEVSEVVSDIEEDRKNSEGKTIGNEIYNTDDDGDGDTSEDYSETAESRVPTSSTTSFPGSSQRSISGCTKVLQKFRYSSSFSGVNANRQPLFPRHVNQKSRGMVYVNQNRDDDCDDNDGKNQITQRPSLRKSLIGARSQRIVIDMKSVDERKSFNSSPILHEESKKRDIETTKSSQARPAVRSISLLSQFVYKGK
For B2, the binding result in assay [1] and in assay [2] was “no binding” throughout.
